# Paper PMC12820563, “FoxP3 forms a head-to-head dimer in vivo and stabilizes its multimerization on adjacent microsatellites”
# The list shows a part of the results.
# Target: T1, MBP-FoxP1dN (Mus musculus, UniProt P58462 326-579)
# T1 sequence: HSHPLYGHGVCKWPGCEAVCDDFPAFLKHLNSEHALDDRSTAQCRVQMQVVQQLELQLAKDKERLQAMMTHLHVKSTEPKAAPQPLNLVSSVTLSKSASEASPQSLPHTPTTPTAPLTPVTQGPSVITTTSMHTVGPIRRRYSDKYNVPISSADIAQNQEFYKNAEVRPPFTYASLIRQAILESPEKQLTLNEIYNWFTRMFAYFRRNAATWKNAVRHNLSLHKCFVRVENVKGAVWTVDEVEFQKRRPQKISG
# Assay: PD-seq (MBP pull-down with sequencing); 20 mM Tris-HCl pH 7.5, 100 mM NaCl, 1.5 mM MgCl2, 0.4 uM protein, 0.1 uM dsDNA library, 30 min, room temperature, amylose pull-down; high values mean tight binding
# Conditions: protein: recombinant; tags: His6-MBP; chain copies: 2; dsDNA, one strand shown
# In short: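 E. coli-expressed mouse FoxP3 or FoxP1 fragment, N-terminus removed and tagged with His6-MBP, was used at 0.4 µM against 0.1 µM of a Klenow-filled degenerate double-stranded DNA library. After 30 min at room temperature in Tris pH 7.5 buffer with NaCl and MgCl2, complexes were pulled down on amylose resin and washed three times. Binding is pull-down over input reads-per-million enrichment from pooled replicates of the proteinase K-released, PCR-barcoded, Illumina-sequenced DNA.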
row,Sequence,binding signal
1,GATGATTGTTCTCCCAGCTGATGAATTGCACCTTTCGAGTAAACAAATTTTCCTAATCTTTCTGTTCAAGCGCCATCTAC,1.19 RPM ratio (pull-down/input)
2,GATGATTGTTCTCCCAGCTGATGAATTACTTATTTCGAGTAAACAAATTTTCCTAATCTTTCTGTTCAAGCGCCATCTAC,1.38 RPM ratio (pull-down/input)
3,GATGATTGTTCTCCCAGCTGATGAATTGCAACTTTCGAGTAAACAAATTTTCCTAATCTTTCTGTTCAAGCGCCATCTAC,1.62 RPM ratio (pull-down/input)
4,GATGATTGTTCTCCCAGCTGATGAATTTCGATAATCGAGTAAACAAATTTTCCTAATCTTTCTGTTCAAGCGCCATCTAC,1.17 RPM ratio (pull-down/input)
5,GATGATTGTTCTCCCAGCTGATGAATTGGCAAGCTCGAGTAAACAAATTTTCCTAATCTTTCTGTTCAAGCGCCATCTAC,0.832 RPM ratio (pull-down/input)
6,GATGATTGTTCTCCCAGCTGATGAATTGTGCGCATCGAGTAAACAAATTTTCCTAATCTTTCTGTTCAAGCGCCATCTAC,1.34 RPM ratio (pull-down/input)
7,GATGATTGTTCTCCCAGCTGATGAATTAAGCTAATCGAGTAAACAAATTTTCCTAATCTTTCTGTTCAAGCGCCATCTAC,1.06 RPM ratio (pull-down/input)
8,GATGATTGTTCTCCCAGCTGATGAATTATGATATTCGAGTAAACAAATTTTCCTAATCTTTCTGTTCAAGCGCCATCTAC,1.24 RPM ratio (pull-down/input)
9,GATGATTGTTCTCCCAGCTGATGAATTACGTTTCTCGAGTAAACAAATTTTCCTAATCTTTCTGTTCAAGCGCCATCTAC,1.01 RPM ratio (pull-down/input)
10,GATGATTGTTCTCCCAGCTGATGAATTCAGGATATCGAGTAAACAAATTTTCCTAATCTTTCTGTTCAAGCGCCATCTAC,0.816 RPM ratio (pull-down/input)
11,GATGATTGTTCTCCCAGCTGATGAATTCTATCGCTCGAGTAAACAAATTTTCCTAATCTTTCTGTTCAAGCGCCATCTAC,0.851 RPM ratio (pull-down/input)
12,GATGATTGTTCTCCCAGCTGATGAATTTTCAGTGTCGAGTAAACAAATTTTCCTAATCTTTCTGTTCAAGCGCCATCTAC,0.89 RPM ratio (pull-down/input)
13,GATGATTGTTCTCCCAGCTGATGAATTGCCAGAATCGAGTAAACAAATTTTCCTAATCTTTCTGTTCAAGCGCCATCTAC,1.07 RPM ratio (pull-down/input)
14,GATGATTGTTCTCCCAGCTGATGAATTTTACATTTCGAGTAAACAAATTTTCCTAATCTTTCTGTTCAAGCGCCATCTAC,0.872 RPM ratio (pull-down/input)
15,GATGATTGTTCTCCCAGCTGATGAATTCTGGGCTTCGAGTAAACAAATTTTCCTAATCTTTCTGTTCAAGCGCCATCTAC,0.843 RPM ratio (pull-down/input)
16,GATGATTGTTCTCCCAGCTGATGAATTAAATGCCTCGAGTAAACAAATTTTCCTAATCTTTCTGTTCAAGCGCCATCTAC,1.03 RPM ratio (pull-down/input)
17,GATGATTGTTCTCCCAGCTGATGAATTCTCCCACTCGAGTAAACAAATTTTCCTAATCTTTCTGTTCAAGCGCCATCTAC,0.903 RPM ratio (pull-down/input)
18,GATGATTGTTCTCCCAGCTGATGAATTCCATCTATCGAGTAAACAAATTTTCCTAATCTTTCTGTTCAAGCGCCATCTAC,0.854 RPM ratio (pull-down/input)
19,GATGATTGTTCTCCCAGCTGATGAATTGACCGCGTCGAGTAAACAAATTTTCCTAATCTTTCTGTTCAAGCGCCATCTAC,0.965 RPM ratio (pull-down/input)
20,GATGATTGTTCTCCCAGCTGATGAATTGCGCACATCGAGTAAACAAATTTTCCTAATCTTTCTGTTCAAGCGCCATCTAC,1.26 RPM ratio (pull-down/input)

row,Sequence,binding signal
1,GATGATTGTTCTCCCAGCTGATGAATTGGTGTCTTCGAGTAAACAAATTTTCCTAATCTTTCTGTTCAAGCGCCATCTAC,0.994 RPM ratio (pull-down/input)
2,GATGATTGTTCTCCCAGCTGATGAATTTACATTATCGAGTAAACAAATTTTCCTAATCTTTCTGTTCAAGCGCCATCTAC,1.61 RPM ratio (pull-down/input)
3,GATGATTGTTCTCCCAGCTGATGAATTCTTGCTATCGAGTAAACAAATTTTCCTAATCTTTCTGTTCAAGCGCCATCTAC,1.09 RPM ratio (pull-down/input)
4,GATGATTGTTCTCCCAGCTGATGAATTAAGGACTTCGAGTAAACAAATTTTCCTAATCTTTCTGTTCAAGCGCCATCTAC,0.768 RPM ratio (pull-down/input)
5,GATGATTGTTCTCCCAGCTGATGAATTGCCCGCTTCGAGTAAACAAATTTTCCTAATCTTTCTGTTCAAGCGCCATCTAC,0.903 RPM ratio (pull-down/input)
6,GATGATTGTTCTCCCAGCTGATGAATTTCGACAATCGAGTAAACAAATTTTCCTAATCTTTCTGTTCAAGCGCCATCTAC,1.18 RPM ratio (pull-down/input)
7,GATGATTGTTCTCCCAGCTGATGAATTATTAAATTCGAGTAAACAAATTTTCCTAATCTTTCTGTTCAAGCGCCATCTAC,1.23 RPM ratio (pull-down/input)
8,GATGATTGTTCTCCCAGCTGATGAATTCCCGTTCTCGAGTAAACAAATTTTCCTAATCTTTCTGTTCAAGCGCCATCTAC,0.776 RPM ratio (pull-down/input)
9,GATGATTGTTCTCCCAGCTGATGAATTAACGTCGTCGAGTAAACAAATTTTCCTAATCTTTCTGTTCAAGCGCCATCTAC,0.854 RPM ratio (pull-down/input)
10,GATGATTGTTCTCCCAGCTGATGAATTGAGTCCATCGAGTAAACAAATTTTCCTAATCTTTCTGTTCAAGCGCCATCTAC,0.869 RPM ratio (pull-down/input)
11,GATGATTGTTCTCCCAGCTGATGAATTAGCTTGCTCGAGTAAACAAATTTTCCTAATCTTTCTGTTCAAGCGCCATCTAC,0.943 RPM ratio (pull-down/input)
12,GATGATTGTTCTCCCAGCTGATGAATTCCGTCATTCGAGTAAACAAATTTTCCTAATCTTTCTGTTCAAGCGCCATCTAC,0.932 RPM ratio (pull-down/input)
13,GATGATTGTTCTCCCAGCTGATGAATTGATGAAGTCGAGTAAACAAATTTTCCTAATCTTTCTGTTCAAGCGCCATCTAC,0.965 RPM ratio (pull-down/input)
14,GATGATTGTTCTCCCAGCTGATGAATTGTGTACTTCGAGTAAACAAATTTTCCTAATCTTTCTGTTCAAGCGCCATCTAC,1.84 RPM ratio (pull-down/input)
15,GATGATTGTTCTCCCAGCTGATGAATTTAGGCATTCGAGTAAACAAATTTTCCTAATCTTTCTGTTCAAGCGCCATCTAC,1.19 RPM ratio (pull-down/input)
16,GATGATTGTTCTCCCAGCTGATGAATTGTTAGAATCGAGTAAACAAATTTTCCTAATCTTTCTGTTCAAGCGCCATCTAC,1.12 RPM ratio (pull-down/input)
17,GATGATTGTTCTCCCAGCTGATGAATTCGCAGAGTCGAGTAAACAAATTTTCCTAATCTTTCTGTTCAAGCGCCATCTAC,0.831 RPM ratio (pull-down/input)
18,GATGATTGTTCTCCCAGCTGATGAATTGAGCATGTCGAGTAAACAAATTTTCCTAATCTTTCTGTTCAAGCGCCATCTAC,0.889 RPM ratio (pull-down/input)
19,GATGATTGTTCTCCCAGCTGATGAATTGGAATTGTCGAGTAAACAAATTTTCCTAATCTTTCTGTTCAAGCGCCATCTAC,0.993 RPM ratio (pull-down/input)
20,GATGATTGTTCTCCCAGCTGATGAATTATCTATCTCGAGTAAACAAATTTTCCTAATCTTTCTGTTCAAGCGCCATCTAC,0.919 RPM ratio (pull-down/input)
